Results as given in paper doi:10.1101/2024.03.18.585568 (bioRxiv, 2024).

Target: the molecule itself
Experiment: cryo-EM structure

B1: apoGAD65 (glutamate decarboxylase GAD65, […], purified without added PLP) (enzyme)
chain: not shown
  stoichiometry N: 2
